Sequences with one replicate were seen in a single cluster, so their values are uncertain.
system: ATP; assay: switch fluorescence ratio, 500 uM ATP over buffer (Cy3 cluster intensity, sum of 5 cycles each) (fold (ratio)); higher = stronger signal-on switching upon ATP binding; sequences stand for … in TCGTCGGCAGCGTCAGATGTGTATAAGAGACAGTTTTTTTTTTTTTTTTTTTTTTTTT…TC; details: aptamer strand: ATP DNA aptamer (quencher-CACCTGGGGGAGTATTGCGGAGGAAGG + anchor), 100 nM annealed; ATP concentration: 500 uM; one replicate
Outline: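 Five buffer/ATP imaging cycles were run on Cy3-labelled switching-strand clusters on a modified Illumina MiSeq flow-cell, with NaOH stripping and re-annealing between cycles. In each cycle, clusters annealed to 100 nM quencher-labelled ATP aptamer were imaged in selection buffer, then after 15 min with 500 uM ATP at 22 °C. Per cluster, the fluorescence ratio is summed target-cycle over summed buffer-cycle Cy3 intensity, averaged per switch-domain sequence. Only clusters within 100-1000 RFU were kept.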
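Note: ATP exposure 15 min at 22 °C before imaging.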

Sequence	switch fluorescence ratio
CACGGCTGCC	1.03
CACGGTAGCG	1.04
CACGGTATAT	1.24
CACGGTGCGT	1.03
CACGGTTCGT	1.02
CACGTAATTC	1.83
CACGTAGG	1.1
CACGTATAAG	1
CACGTCACTG	1.61
CACGTCTGGT	0.991
CACGTGGGGT	0.966
CACGTTGTCC	1.01
CACTAACTTC	1.11
CACTACGGTA	1.19
CACTAGAGGG	0.99
CACTCAGGGC	1.12
CACTCGAGTT	1.04
CACTCGCCTT	1.02
CACTCGTTCA	1.04
CACTCTGGGG	1.04
CACTGCACAG	1.31
CACTGGAAC	1.22
CACTGGCCGC	1.15
CACTGTCGCG	1.01
CACTTACAGG	1.26

Sequence	switch fluorescence ratio
CACTTATTGT	0.979
CACTTCAAGG	1.03
CACTTCCGGC	1.44
CACTTCTCCT	1.08
CACTTCTTCC	2.05
CACTTCTTGT	0.988
CACTTGATTG	1.03
CACTTGTATC	1.02
CACTTTAACA	1.08
CACTTTGTGG	1.01
CACTTTTGGC	1.13
CAGAAAGCTC	1.02
CAGAAATAAC	1.07
CAGAAATCGT	1.02
CAGAACGTCT	1.03
CAGAAGACGC	1.02
CAGAAGGCGG	1
CAGAAGGGT	0.984
CAGAATCTTC	0.993
CAGAATGGTT	1
CAGACCACGC	1.06
CAGACGCCGC	2.06
CAGACGGGAG	1.07
CAGACTCGTT	1.03
CAGACTGGTG	1.02

Sequence	switch fluorescence ratio
CAGAGAGTGC	0.999
CAGAGCCCTG	1.03
CAGAGCCGTC	1.01
CAGAGCGAAT	1.18
CAGAGCGGTA	1.05
CAGAGCTCTA	1.06
CAGAGTAACG	1
CAGAGTGTGC	1.05
CAGAGTTGTA	0.999
CAGATCCACT	0.988
CAGATCGGCA	0.997
CAGATGCAAT	4.46
CAGATGGGCG	0.993
CAGATTCCTT	0.997
CAGATTGGCC	1.02
CAGATTGTGA	1
CAGCAACGGC	1.23
CAGCACCGGG	1.07
CAGCACTTGA	1.07
CAGCATATA	1.49
CAGCATCCAA	1.06
CAGCATCTCT	1.15
CAGCATGGTG	1.05
CAGCCCGGCG	1.04
CAGCCCTGGC	0.945

Sequence	switch fluorescence ratio
CAGCCGCAT	2.57
CAGCCGTATG	0.961
CAGCCTGTCA	1
CAGCCTTATC	1.07
CAGCGATAAA	1.03
CAGCGATGAC	2.37
CAGCGCACTC	2.68
CAGCGCACTT	1.08
CAGCGTATT	1
CAGCGTTAAA	0.978
CAGCGTTGGG	0.989
CAGCGTTTGG	1
CAGCTAACTC	1.62
CAGCTCAACT	1.03
CAGCTCGCAG	1.31
CAGCTGATCT	1.02
CAGCTGCATA	1.86
CAGCTGCCGC	1.03
CAGCTGCGCA	0.989
CAGCTGGGTA	0.989
CAGCTTGATT	1.01
CAGCTTGGTT	1.01
CAGCTTGTTG	0.967
CAGGAAAGGG	1.02
CAGGAAATGT	1.03

Sequence	switch fluorescence ratio
CAGGACGGTG	0.98
CAGGAGAGTC	1.01
CAGGATGGTA	0.976
CAGGCAACGG	1.07
CAGGCGCCGC	1.07
CAGGCGTCCT	1
CAGGCTTAGG	0.978
CAGGCTTTGG	0.991
CAGGGCGCGC	1.05
CAGGGCTCGG	0.954
CAGGGGATAG	1.03
CAGGGGATGG	0.936
CAGGGGCACC	1
CAGGGTGCAG	0.908
CAGGGTGGAA	0.993
CAGGGTGTAG	0.999
CAGGGTTGTA	0.942
CAGGTACACA	1.07
CAGGTCTGTT	0.979
CAGGTCTTTA	1.01
CAGGTTCCAT	0.984
CAGGTTCTAG	1.01
CAGTAAAGCT	1.11
CAGTAACCCT	1.09
CAGTAAGCGT	0.976

Sequence	switch fluorescence ratio
CAGTACCACA	1.05
CAGTAGAGGA	1.06
CAGTAGTTTC	1.03
CAGTATTGG	0.976
CAGTCACGGG	1.02
CAGTCATGAC	1.03
CAGTCCAC	1.01
CAGTCGAGGA	0.992
CAGTCGCGGT	1.03
CAGTCGGGGG	0.996
CAGTCTAACT	0.992
CAGTCTGTA	0.998
CAGTGAAGAT	0.969
CAGTGACTAA	1.02
CAGTGATAGT	1.04
CAGTGCCTTC	1.04
CAGTGCGGGG	0.985
CAGTGGTCAG	1.01
CAGTGGTTGA	0.975
CAGTTAGGCG	0.978
CAGTTAGGTT	0.989
CAGTTCACTG	1.05
CAGTTCATAG	1.01
CAGTTCGCAG	1.16
CAGTTGAGTA	0.983

Sequence	switch fluorescence ratio
CAGTTGGATA	0.99
CAGTTGTCTG	1.01
CAGTTTGCGA	1.01
CAGTTTTCTA	0.98
CAGTTTTCTG	0.964
CATAAACGTG	1.04
CATAAAGGA	1.02
CATAAGTCGG	0.955
CATAATCAAG	0.995
CATACACTGC	1.07
CATACAGGTT	1.04
CATACTAAGG	1.05
CATACTTGGG	0.988
CATAGAACCC	0.977
CATAGACAT	0.975
CATAGAGGAG	0.989
CATAGCCCTC	1.02
CATAGCTAGA	1.05
CATAGGCGGA	1.19
CATAGGCGGC	0.971
CATAGGGGGC	1.02
CATAGGGGTT	0.96
CATAGGGTAC	1.05
CATAGGTTGG	0.978
CATATAAAAG	0.994

Sequence	switch fluorescence ratio
CATATAAGTT	1.01
CATATATAAA	0.979
CATATCGTAT	1.02
CATATGTGTC	0.92
CATATTGCGT	1.02
CATATTGTCA	1
CATATTTTCG	1.03
CATCAAACGC	1.11
CATCAAGCTT	1.12
CATCAAGGGG	1.1
CATCAATCGA	0.988
CATCAGGGCC	1.01
CATCATCATA	1.05
CATCATTGTA	0.98
CATCCACTGT	1.22
CATCCATAGG	1.01
CATCCCCGT	1.05
CATCCGTAG	3.77
CATCCTAGCC	1.19
CATCCTGAGG	0.965
CATCGGAGCT	1.08
CATCGGCATA	3.56
CATCGGGAAA	1.05
CATCGGGCCC	0.988
CATCGTTTGG	1.02
